These results are taken from PubChem BioAssay AID463173 (ICCB-Longwood Screening Facility, Harvard Medical School, 2010).

About 1,700 (3.3%) of roughly 52,000 compounds were called active. Cut-off read from the data, not from the text of the source: active = survival mostly below about 52% (no sharp cut-off); inactive = mostly above about 56%. Some of the results follow.

In this experiment the test system is Wild type. The experiment can be described thus: growth inhibition of S. aureus wild type versus tarO mutant, primary screen, teichoic acid synthesis inhibitors, RN4220, OD600 (AID 463173). As to conditions: S. aureus RN4220 wild type/DeltatarO growth, OD600, 18 h, stronger effect = lower value, screened at 18.75 µg/mL (by protocol).
Turning to `COc1cccc([C@H]2Nc3ccc(S(=O)(=O)Nc4cc(C)ccc4C)cc3[C@H]3C=CC[C@H]32)c1`, the survival is inactive: 72%.

Take `Cc1cccc(N(CC(=O)N2CCCC2)S(C)(=O)=O)c1`: the survival was inactive: 105%.

Take `CC(=O)c1cc(-c2ccc(F)cc2)n(CC(=O)NCc2ccc(C)cc2)c1C`: the survival was inactive: 73%.

Consider `CC1(C)C2CCC(C2)C1(C)NC(=O)CNCc1ccco1` (configuration not stated), for which the survival was inactive: 103%.

Consider `Cc1cc(C)c(OCC(=O)Nc2cccc(-c3nc4ncccc4o3)c2)c(Br)c1`, for which the survival was active: 4%.

Consider `COc1cc(NS(=O)(=O)c2cccs2)cc(OC)c1`, for which the survival was inactive: 72%.

As to `COc1cccc(-c2nc(CS(=O)(=O)CC(=O)NCCCc3ccccc3)c(C)o2)c1`, the survival was inactive: 105%.

`Cc1cc(C)c2cc(C3C(C#N)=C(N)OC4=C3C(=O)CC(C)(C)C4)c(=O)[nH]c2c1` (configuration not stated): the survival was inactive: 114%.

`Cc1ccc(S(=O)(=O)N2CCCc3cc(NC(=O)c4ccc(C(C)(C)C)cc4)ccc32)cc1`: the survival was inactive: 121%.

`CC(C)c1cc(=O)n2[nH]cnc2n1`: the survival is inactive: 104%.

On to `CC(C)N1CCNCC1`, for which the survival was inactive: 112%.

Regarding `Cc1ccc(CSc2ncccc2C(=O)O)cc1`, the survival was inactive: 68%.

With `Cc1nc(-c2ccc(F)cc2)sc1CCNC(=O)C(=O)Nc1ccc2c(c1)OCO2`, the survival is inactive: 74%.

With `CCCn1c2ccccc2c2cnn(CC(=O)NCCc3cc(OC)ccc3OC)c(=O)c21`, the survival was inactive: 69%.

On to `CCOC(=O)c1cccc(NC(=O)NCc2ccc3c(c2)CCN3C(=O)CC)c1`, for which the survival is inactive: 76%.

Consider `CCN(CC)c1ccc(NC(=O)c2sc3nc(-c4ccccc4)cn3c2C)cc1`, for which the survival is inactive: 113%.

Regarding `COc1ccc(N2CCN(C(=O)c3nn(C)c4c3CSc3ccccc3-4)CC2)cc1`, the survival is inactive: 84%.

For `CCC(=O)Nc1ccccc1-c1nc2ccccc2n(CC(=O)c2ccc(Br)cc2)c1=O`, the survival is inactive: 61%.

As for `Cc1ccc(Cl)cc1NC(=O)Cn1cc(S(=O)(=O)Cc2ccccc2Cl)c2ccccc21`, the survival is inactive: 80%.

As to `CCc1ccc(C(=O)c2cn(CC(=O)Nc3ccc(OC)c(Cl)c3)c3nc(C)ccc3c2=O)cc1`, the survival is inactive: 119%.

For `CCCN(C(=O)NCc1noc2ccc(C)cc12)c1ccc(Cl)c(Cl)c1`, the survival is inactive: 64%.

Consider `CC1=C(C(=O)Nc2cccc(C(F)(F)F)c2)C(c2ccccn2)n2ncnc2N1` (configuration not stated), for which the survival was inactive: 81%.

As to `O=C(Cn1c(SCCOc2ccccc2Cl)nc2ccccc21)N1CCCCC1`, the survival was inactive: 61%.

`Cc1cc(C)cc(OCC(=O)NCC2(N3CCOCC3)CCCCC2)c1`: the survival is inactive: 95%.

In the case of `CCCc1cc(=O)[nH]c(SCc2nc(-c3ccc(OC)cc3)no2)n1`, the survival was inactive: 101%.

In the case of `COCCNC(=O)c1c[nH]c2ccccc2c1=O`, the survival is inactive: 104%.

For the compound `Cc1ccc(C)c(NC(=O)Cn2c(=O)n(Cc3ccco3)c(=O)c3ccc(C(=O)NC4CCCC4)cc32)c1`, the survival was inactive: 84%.

Take `COc1ccc(CC(=O)NCCc2csc(-c3cccc(F)c3)n2)cc1OC`: the survival is inactive: 71%.

In the case of `N#Cc1ccccc1Cn1c(=O)n(-c2ccc(F)c(Cl)c2)c(=O)c2sccc21`, the survival was inactive: 118%.

Regarding `CCOC(=O)c1ccccc1NC(=O)c1sc2ncn(CC)c(=O)c2c1C`, the survival is inactive: 82%.

As for `Cc1ccc(S(=O)(=O)Nc2cc3c(C(=O)OCc4ccccc4)c(C)oc3c3ccccc23)cc1`, the survival is inactive: 81%.

Consider `O=C(C1CCN(c2ncnc3c2nc2n3CCCCC2)CC1)N1CCN(c2ccccc2)CC1`, for which the survival is inactive: 71%.

Take `FC(F)(F)c1ccc(C2=Nc3ccccc3NC(c3cccs3)=N2)cc1`: the survival was inactive: 111%.

On to `COc1ccc(F)cc1NC(=O)C1CCN(c2nc(-c3ccc(OC)c(OC)c3)no2)CC1`, for which the survival is inactive: 86%.

Consider `COc1cccc(C(=O)NC(c2ccc(Cl)cc2)c2cc(Cl)c3cccnc3c2O)c1` (configuration not stated), for which the survival is inactive: 71%.

For `Cc1ccc(-n2nc(C)c3c(C)cc(=O)n(CC(=O)NCc4ccc(OC(C)C)cc4)c32)cc1`, the survival was inactive: 120%.

With `O=C(COc1ccc(F)cc1)Nc1cccc(OCc2cc(=O)n3ccccc3n2)c1`, the survival is inactive: 73%.

Regarding `COc1ccc(Nc2ncc(C(=O)Nc3cc(C)ccc3OC)c3ccccc23)cc1`, the survival was inactive: 89%.

For `Cc1nc(NC(=O)CSc2nc3cccnc3n2C2CCCCC2)sc1C`, the survival was inactive: 104%.

For `Cn1c(C(=O)NCc2ccc(Cl)cc2)cc2c(=O)n(C)c3ccccc3c21`, the survival was inactive: 120%.

On to `Cc1ccc(Cl)cc1NC(=O)Cn1c(=O)oc2cc(S(=O)(=O)N3CCCCCC3)ccc21`, for which the survival is inactive: 76%.

As to `Cc1ccc2c(c1)c1c(c(=O)n(-c3ccccc3C)c(=O)n1Cc1ccccc1F)n2C`, the survival was inactive: 102%.

On to `COc1ccc(NC(=O)CCc2c(C)nc3c(-c4ccccc4)c(C)nn3c2C)cc1Cl`, for which the survival is inactive: 76%.

As to `Fc1ccc(-n2ncc3c(Nc4ccc(Oc5ccccc5)cc4)ncnc32)cc1`, the survival is inactive: 63%.

In the case of `Cc1cccc2c1-c1sc(C(=O)NCCCN3CCN(c4cccc(Cl)c4)CC3)cc1CO2`, the survival was inactive: 105%.

On to `Cc1ccc(OCC(=O)Nc2c(Cl)ccc3nsnc23)cc1C`, for which the survival was inactive: 56%.

With `COc1ccc(-c2noc(C(C)NC(=O)c3ccco3)n2)cc1` (configuration not stated), the survival is inactive: 107%.

Consider `Cc1ccc(NC(=O)c2ccc(=O)n(CC(=O)Nc3cc(C)cc(C)c3)n2)cc1`, for which the survival is inactive: 74%.

`COc1cc(C(c2c(C)[nH][nH]c2=O)c2c(C)[nH][nH]c2=O)ccc1OC(=O)c1ccccc1F`: the survival is inactive: 75%.

For the compound `Cc1ccc(NC(=O)C(C)Sc2nnc(C3CCCCC3)n2C)cc1` (configuration not stated), the survival is inactive: 108%.

With `CC(=O)Nc1cccc(-c2nnc(SCC(=O)c3cc([N+](=O)[O-])ccc3Br)o2)c1`, the survival is inactive: 70%.

As to `O=C(O)/C=C/C(=O)N1CCC(C(=O)c2ccc(F)cc2)CC1`, the survival is inactive: 95%.

Consider `CC(=O)c1cccc(Nc2c3c(nc4nc(-c5cccs5)nn24)CCCC3)c1`, for which the survival is inactive: 76%.

On to `Cc1ccc(C(=O)Oc2ccc(/C=N/NC(N)=O)cc2)cc1`, for which the survival is inactive: 112%.

For the compound `S=c1[nH]nc(Cc2ccccc2)n1Cc1ccco1`, the survival is inactive: 112%.

Consider `CCCN1CCN(CCCNC(=O)c2cnn(-c3ccc(C)cc3)c2-n2cccc2)CC1`, for which the survival was inactive: 121%.

`CC(=O)Nc1ccc(NC(=O)CSc2nnc3c4cc(Br)ccc4n(C)c3n2)cc1`: the survival was inactive: 79%.
